Structures are written as SMILES. “And” between values parts separate entries of the source, which are not always exact repeats. Identical values can stand only once. The list shows a part of the results. Further columns of the screen follow, without active or inactive calls. Compounds called inactive in the main read-out are mostly missing here.

This assay in a line: qHTS Assay for Lipid Storage Modulators (AID 1519). The note with it: Drosophila S3 cells, BODIPY lipid droplet/cell ratio, laser cytometry; measured here: cell count channel max response; cells loaded with oleic acid. The method, boiled down:
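Cells seeded at 5,000 per well were treated with compounds over a concentration series and loaded with oleic acid (400 uM, as added). Lipid droplet fluorescence (488 nm excitation, 500-530 nm channel) was read by laser-scanning cytometry and normalized to 20 uM Triacsin C.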
In general terms: qHTS replaces the single test concentration by a dilution series.
In the case of `c1cncc(-c2nccc(NCc3cccs3)n2)c1`, the max response is 16.5%. Next, `O[C@H](CCCN1CCN(c2ncc(F)cn2)CC1)c1ccc(F)cc1`: 59.3%; `COc1cccc(Nc2ncc3nc(-c4ccccc4)c(=O)n(C)c3n2)c1`: 8.8%; `CO[C@]12C[C@@H](COC(=O)c3cncc(Br)c3)CN(C)[C@@H]1Cc1cn(C)c3cccc2c13`: 119%. Turning to `COC(=O)C1OC(=O)C2OC23[C@]2(C)C(OC(C)=O)CC4C(C)(C)C(=O)CC[C@]4(C)C2CC[C@@]13C` (some centres undefined), the max response is 30.4%.

For the compound `COc1cc(/C=C/C(=O)N2CCCCC2=O)cc(OC)c1OC`, the max response amounted to 67.6%. Under `COCCn1c(=O)c(-c2ccc(OC)cc2)nc2cnc(N3CCNCC3)nc21` stands 32.4%. On to `CCCCCCc1c(C[C@H](N)C(=O)O)o[nH]c1=O`, for which the max response is 26.5% and -0.198%. Next, `COc1cccc(-c2ccc3ncnc(N4CCOCC4)c3c2)c1`: 13.8%; `O=C(Cc1ccc(Cl)cc1)c1c(O)cc(O)cc1O`: 60.7%; `CC(N)(C(=O)O)c1ccc(C(=O)O)cc1` (centres undefined): 38%. Under `COc1ccc(-c2nc3cnc(N(C)C)nc3n(C[C@H]3CCCO3)c2=O)cc1` stands -17.3%. Turning to `COc1cccc(-c2nc(N(C)C)c3ccccc3n2)c1`, the max response turned out to be 43.1%.

Take `COc1cc2c(cc1OC)-c1cc3nc4ccccc4nc3n1C(C)(C)C2`: the max response stood at 50%. Turning to `COc1ccc(CNc2ncnc3ccc(-c4ccccc4C#N)cc23)c(OC)c1`, the max response is 32.2%. For the compound `CC(=O)c1ccc[nH]1`, the max response is 8.16%. Turning to `CN(C)CCCCSC(=N)N`, the max response is -32.3% and 27%. With `CN(C)c1ncc2nc(-c3ccccc3)c(=O)n(C3CC3)c2n1`, the max response was 21.3%. Under `COc1ccccc1CNc1nc(-c2cccc(C#N)c2)nc2ccccc12` stands 24.3%. Under `COc1ncc2nc(CCc3ccccc3)c(=O)n(Cc3ccc(F)cc3)c2n1` stands 16.6%. Consider `COc1ccc(CNc2ncncc2-c2ccccc2C(F)(F)F)c(OC)c1`, for which the max response amounted to 34%.

As for `CN(Cc1ccco1)c1ncnc2ccc(-c3ccoc3)cc12`, the max response came out at 26.3%. Under `CN1CCc2cc3c(cc2[C@@H]1[C@@H]1C(=O)Oc2c1ccc1c2OCO1)OCO3` stands 73.7%; under `CCCNC(=O)N1N=C(c2ccc(N)cc2)c2cc3c(cc2[C@H]1C)OCO3`, 91%. Next, `O=c1c(-c2cccc(Cl)c2)nc2cncnc2n1Cc1ccc(F)cc1`: 10.9%; `COc1cccc(Cn2c(=O)c(C)nc3cnc(Oc4cccc(Cl)c4)nc32)c1`: 30.2%; `COc1ccc(Oc2ncc3nc(-c4cc(F)cc(F)c4)c(=O)n(C4CC4)c3n2)cc1`: -1.96%. Next, `N#Cc1cccc(-c2nc(NCc3ccccc3)c3ccccc3n2)c1`: 36.1%; `CC1(C)CC[C@]2(C(=O)O)CC[C@]3(C)C(=CCC4[C@@]5(C)CC[C@H](O)C(C)(C)[C@@H]5CC[C@]43C)C2C1` (some centres undefined): 68.5%; `Cn1c(-c2nc(-c3ccccc3)cs2)nc2ccccc21`: 53.7%. Take `COc1cccc(Nc2ncc3nc(-c4cccs4)c(=O)n(CCC#N)c3n2)c1`: the max response worked out at 47.2%.

Turning to `COc1ccc(CNc2cc(-c3ccccc3OC)ncn2)c(OC)c1`, the max response turned out to be 33.3%. Under `COc1ccc(C(=O)N2CCC3(CCCN(c4cccc(-c5ccccc5)c4)C3)CC2)cc1` stands 19.2%; under `COc1ccc(Oc2ncc3nc(-c4cc(F)cc(F)c4)c(=O)n(C[C@H]4CCCO4)c3n2)cc1`, 11.2%; under `COc1cccc(-c2cncnc2NCCc2c[nH]c3ccc(OC)cc23)c1`, 33.2%. With `N#Cc1cccc(NC(=O)N2CCCC3(CCN(C(=O)c4cccc(F)c4)CC3)C2)c1`, the max response amounted to 32.7%.

Take `CCCCOc1cc(C[C@@H]2CNC(=O)N2)ccc1OC`: the max response came out at 78.6%. As for `C=C(CO)C1Cc2c(ccc3c(=O)c4c(oc23)COc2cc(OC)c(OC)cc2-4)O1` (centres undefined), the max response came out at 46.5%. Turning to `Cn1cc(-c2nc3cncnc3n(CCN)c2=O)c2ccccc21`, the max response stood at 17.3%.

The values are drawn from PubChem BioAssay (NCATS).
